Patent US20250115571A1, “OXOPIPERAZINE DERIVATIVES” (Inthera Bioscience AG, priority 2017, published 2025)
At least one read-out could not be matched to a standard name with certainty. Marks after values point to notes of the source that are not given here.

system: CaSki cells; assay: Colony Formation Assay (CFA), 14 days; type: cell-based, human; settings: colony formation assay, class by % inhibition at 0.7, 6 or 50 μM

SMILES	Activity (inhibition of colony formation)
CC(C)C[C@@H]1NCCN([C@@H](CC(C)C)C(=O)N2CCC(Cc3ncc4n3CCCC4)CC2)C1=O [Compound 81, (S)-1-[(S)-1-({4-[(2,3a-Diaza-4,5,6,7-tetrahydroinden-3-yl)methyl]-1-piperidyl}carbonyl)-3-methylbutyl]-3-isobutyl-2-piperazinone]	+++ (more than 90% inhibition of colony formation at a concentration of 50 μM)
CC(C)C[C@@H]1NCCN([C@@H](CC(C)C)C(=O)N2CCC(CC(N)=O)CC2)C1=O [Compound 5, (1-{(S)-2-[(S)-3-Isobutyl-2-oxo-1-piperazinyl]-4-methylvaleryl}-4-piperidyl)actamide]	+* (greater than 0% but less than or equal to 50% inhibition of colony formation at a concentration of 50 μM)
CC(C)C[C@@H]1NCCN([C@@H](CC(C)C)C(=O)N2CCC3(CCN(C)CC3)CC2)C1=O [Compound 55, (S)-1-[(S)-3-Methyl-1-{(9-methyl-3,9-diaza-3-spiro[5.5]undecyl)car-bonyl}butyl]-3-isobutyl-2-piperazinone]	+++ (more than 90% inhibition of colony formation at a concentration of 50 μM)
CC(C)C[C@@H]1NCCN([C@@H](CC(C)C)C(=O)N2CCC(Cc3ccnn3C)CC2)C1=O [Compound 43, (S)-1-[(S)-3-Methyl-1-({4-[(2-methyl-2H-pyrazol-3-yl)methyl]-1-piperidyl}car-bonyl)butyl]-3-isobutyl-2-piperazinone]	+++ (more than 90% inhibition of colony formation at a concentration of 50 μM)
CCCC[C@@H](C(=O)N1CCC(CC(N)=O)CC1)N1CCN[C@@H](CC2CC2)C1=O [Compound 93, (1-{(S)-2-[(S)-3-(Cyclopropylmethyl)-2-oxo-1-piperazinyl]hexa-noyl}-4-piperidyl)acetamide]	+* (greater than 0% but less than or equal to 50% inhibition of colony formation at a concentration of 50 μM)
CC(C)C[C@@H]1NCCN([C@@H](CC(C)C)C(=O)N2CCC3(CC2(C)C)OCC(CN2CCCC2)CO3)C1=O (stereo partly drawn) [Compound 291, (S)-1-[(S)-1-({8,8-Dimethyl-3-[(1-pyrrolidinyl)methyl]-1,5-dioxa-9-aza-9-spiro[5.5]un-decyl}carbonyl)-3-methylbutyl]-3-isobutyl-2-piperazinone]	*+ (greater than 0% but less than or equal to 50% inhibition of colony formation at a concentration of 0.7 μM)
CC(C)C[C@H]1C(=O)N([C@@H](CC(C)C)C(=O)N2CCC(CC(N)=O)CC2)CCN1C [Compound 85, (1-{(S)-2-[(S)-3-Isobutyl-4-methyl-2-oxo-1-piperazinyl]-4-methylvaleryl}-4-piperidyl)acetamide]	++ (more than 50% inhibition of colony formation at a concentration of 50 μM)
CC(C)CCN(C)C(=O)CC1CCN(C(=O)[C@H](CC(C)C)N2CCN[C@@H](CC3CC3)C2=O)CC1 [Compound 61, (S)-1-[(S)-1-[(4-{2-[N-methyl(isopentyl)amino]-2-oxoethyl}-1-piperidyl)carbonyl]-3-methylbutyl]-3-(cyclopropylmethyl)-2-piperazinone]	++ (more than 50% inhibition of colony formation at a concentration of 50 μM)
CC(C)(C)C[C@@H]1NCCN([C@@H](CC2CC2)C(=O)N2CCC(CC(N)=O)CC2)C1=O [Compound 115, (1-{(S)-2-[(S)-3-Neopentyl-2-oxo-1-piperazinyl]-3-cyclopropylpro-pionyl}-4-piperidyl)acetamide]	++ (more than 50% inhibition of colony formation at a concentration of 50 μM)
CC(C)C[C@@H]1NCCN([C@@H](CC(C)C)C(=O)N2CCC3(CCC3CN(C)C)CC2)C1=O (stereo partly drawn) [Compound 244, (S)-1-[(S)-1-({1-[(Dimethyl-amino)methyl]-7-aza-7-spiro[3.5]nonyl}car-bonyl)-3-methylbutyl]-3-isobutyl-2-piperazinone]	++++ (more than 90% inhibition of colony formation at a concentration of 6 μM)
CC(C)C[C@@H]1NCCN([C@@H](CC(C)C)C(=O)N2CCC(Cc3ccccc3)CC2)C1=O [Compound 14, (S)-1-{(S)-1-[(4-Benzyl-1-piperidyl)carbonyl]-3-methylbutyl}-3-isobutyl-2-piperazinone]	+++ (more than 90% inhibition of colony formation at a concentration of 50 μM)
CC(C)C[C@H]1C(=O)N([C@@H](CC(C)C)C(=O)N2CCC3(CC2)CC(CN(C)C)C3)CCN1C [Compound 263, (S)-1-[(S)-1-({2-[(Dimethyl-amino)methyl]-7-aza-7-spiro[3.5]nonyl}car-bonyl)-3-methylbutyl]-3-isobutyl-4-methyl-2-piperazinone]	++++ (more than 90% inhibition of colony formation at a concentration of 6 μM)
CC(C)C[C@@H]1NCCN([C@@H](CC(C)C)C(=O)N2CCC3(CC2)CNC(=O)C3)C1=O [Compound 71, (S)-1-[(S)-3-Methyl-1-{(3-oxo-2,8-diaza-8-spiro[4.5]decyl)car-bonyl}butyl]-3-isobutyl-2-piperazinone]	+* (greater than 0% but less than or equal to 50% inhibition of colony formation at a concentration of 50 μM)
CCC[C@@H](C(=O)N1CCC(CC(N)=O)CC1)N1CCN[C@@H](CC(C)(C)C)C1=O [Compound 112, (1-{(S)-2-[(S)-3-Neopentyl-2-oxo-1-piperazinyl]valeryl}-4-piperidyl)acetamide]	+* (greater than 0% but less than or equal to 50% inhibition of colony formation at a concentration of 50 μM)
CC(C)C[C@@H]1NCCN([C@@H](CC(C)C)C(=O)N2CCC(C)(COc3ccccc3)CC2)C1=O [Compound 26, (S)-1-[(S)-3-Methyl-1-{[4-methyl-4-(phenoxymethyl)-1-piperidyl]car-bonyl}butyl]-3-isobutyl-2-piperazinone]	+++ (more than 90% inhibition of colony formation at a concentration of 50 μM)
CC(C)C[C@@H]1NCCN([C@@H](CC(C)C)C(=O)N2CCC3(C[C@@H]2C)OCC(CN2CCC2)CO3)C1=O (single isomer, unassigned; isomer e) [Compound 283]	++++ (more than 90% inhibition of colony formation at a concentration of 6 μM)
Cc1nc(CC2CCN(C(=O)[C@H](CC(C)C)N3CCN[C@@H](CC(C)C)C3=O)CC2)n(C(C)C)c1C [Compound 22, (S)-1-[(S)-1-({4-[(1-Isopropyl-4,5-dimethyl-1H-imidazol-2-yl)methyl]-1-piperidyl}carbonyl)-3-methylbutyl]-3-isobutyl-2-piperazinone]	++ (more than 50% inhibition of colony formation at a concentration of 50 μM)
CC(C)C[C@@H]1NCCN([C@@H](CC(C)C)C(=O)N2CCC(CCC(N)=O)CC2)C1=O [Compound 101, 3-(1-{(S)-2-[(S)-3-Isobutyl-2-oxo-1-piperazinyl]-4-methylvaleryl}-4-piperidyl)propiona-mide]	++ (more than 50% inhibition of colony formation at a concentration of 50 μM)
CC(C)C[C@@H]1NCCN([C@@H](CC(C)C)C(=O)N2CCC(CC#N)CC2)C1=O [Compound 83, (1-{(S)-2-[(S)-3-Isobutyl-2-oxo-1-piperazinyl]-4-methylvaleryl}-4-piperidyl)acetonitrile]	+++ (more than 90% inhibition of colony formation at a concentration of 50 μM)
CC(C)C[C@@H]1NCCN([C@@H](CC(C)C)C(=O)N2CCC(C)(CCN3CCCC3)CC2)C1=O [Compound 270, (S)-1-[(S)-3-Methyl-2-({4-methyl-4-[2-(1-pyrrolidinyl)ethyl]-1-piperidyl}car-bonyl)butyl]-3-isobutyl-2-piperazinone]	+++ (more than 90% inhibition of colony formation at a concentration of 50 μM)

same assay, conditions: inhibition of colony formation, 14 days, classes at 6, 50 or 0.7 μM

SMILES	Activity
CC(C)C[C@@H]1NCCN([C@@H](CC(C)C)C(=O)N2CCC(COc3cccnc3)CC2)C1=O [Compound 146, (S)-1-[(S)-3-Methyl-1-({4-[(3-pyridyloxy)methyl]-1-piperidyl}car-bonyl)butyl]-3-isobutyl-2-piperazinone]	+* (greater than 0% but less than or equal to 50% inhibition of colony formation at a concentration of 50 μM)
CC(C)C[C@@H]1NCCN([C@@H](CC(C)C)C(=O)N2CCC(COc3ccc(CC(N)=O)cc3)CC2)C1=O [Compound 190, {p-[(1-{(S)-2-[(S)-3-Isobutyl-2-oxo-1-piperazinyl]-4-methylvaleryl}-4-piperidyl)meth-oxy]phenyl}acetamide]	++ (more than 50% inhibition of colony formation at a concentration of 50 μM)
CC(C)C[C@@H]1NCCN([C@@H](CC(C)C)C(=O)N2CCC(C(=O)OC3CC=CC3)CC2)C1=O [Compound 218, 3-Cyclopenten-1-yl 1-{(S)-2-[(S)-3-isobutyl-2-oxo-1-piperazinyl]-4-methylvaleryl}-4-piperidinecarboxylate]	++ (more than 50% inhibition of colony formation at a concentration of 50 μM)
CC(C)C[C@@H]1NCCN([C@@H](CC(C)C)C(=O)N2CCC(COc3ccc(C(N)=O)cc3)CC2)C1=O [Compound 225, p-[(1-{(S)-2-[(S)-3-Isobutyl-2-oxo-1-piperazinyl]-4-methylvaleryl}-4-piperidyl)meth-oxy]benzamide]	++ (more than 50% inhibition of colony formation at a concentration of 50 μM)
CC(C)C[C@@H]1NCCN([C@@H](CC(C)C)C(=O)N2CCC(COc3ncccn3)CC2)C1=O [Compound 165, (S)-1-[(S)-3-Methyl-1-({4-[(2-pyrimidinyloxy)methyl]-1-piperidyl}car-bonyl)butyl]-3-isobutyl-2-piperazinone]	+* (greater than 0% but less than or equal to 50% inhibition of colony formation at a concentration of 50 μM)
CC(C)C[C@@H]1NCCN([C@@H](CC(C)C)C(=O)N2CCC(CC(=O)OCc3ccncc3)CC2)C1=O [Compound 209, (4-Pyridyl)methyl (1-{(S)-2-[(S)-3-isobutyl-2-oxo-1-piperazinyl]-4-methylvaleryl}-4-piperidyl)acetate]	++ (more than 50% inhibition of colony formation at a concentration of 50 μM)
